This is one part of the list.
Experiments:
Experiment in all cases: glycan array binding signal (z-score within array); higher = stronger binding
Details in all cases: glycan notation: IUPAC condensed, linker removed
[1] = target: GlcNAc(b1-3)Gal(b1-4)GlcNAc(b1-3)Gal(b1-4)GlcNAc(b1-3)Gal(b1-4)GlcNAc(b1-2)[GlcNAc(b1-3)Gal(b1-4)GlcNAc(b1-3)Gal(b1-4)GlcNAc(b1-3)Gal(b1-4)GlcNAc(b1-6)]Man(a1-6)[GlcNAc(b1-3)Gal(b1-4)GlcNAc(b1-3)Gal(b1-4)GlcNAc(b1-3)Gal(b1-4)GlcNAc(b1-2)Man(a1-3)]Man(b1-4)GlcNAc(b1-4)[Fuc(a1-6)]GlcNAc
Procedure, shortened: (§1)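 Columns mapping to the same glycan were averaged after glycan names were converted to IUPAC-condensed notation. The data come from 3228 arrays in the Consortium for Functional Glycomics database, limited to those with an available protein sequence. Binding is reported as a within-array Z-score averaged across arrays of one protein sequence and across linkers.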

[2] = target: GlcNAc(b1-3)Gal(b1-4)GlcNAc(b1-3)Gal(b1-4)GlcNAc(b1-3)Gal(b1-4)GlcNAc(b1-3)Gal(b1-4)GlcNAc(b1-2)Man(a1-3)[GlcNAc(b1-3)Gal(b1-4)GlcNAc(b1-3)Gal(b1-4)GlcNAc(b1-3)Gal(b1-4)GlcNAc(b1-3)Gal(b1-4)GlcNAc(b1-2)Man(a1-6)]Man(b1-4)GlcNAc(b1-4)GlcNAc
Procedure, shortened: as §1

[3] = target: GlcNAc(b1-3)Gal(b1-4)GlcNAc(b1-3)Gal(b1-4)GlcNAc(b1-3)Gal(b1-4)GlcNAc(b1-3)Gal(b1-4)GlcNAc(b1-2)Man(a1-3)[GlcNAc(b1-3)Gal(b1-4)GlcNAc(b1-3)Gal(b1-4)GlcNAc(b1-3)Gal(b1-4)GlcNAc(b1-3)Gal(b1-4)GlcNAc(b1-2)Man(a1-6)]Man(b1-4)GlcNAc(b1-4)[Fuc(a1-6)]GlcNAc
Procedure, shortened: as §1

[4] = target: GlcNAc(b1-3)Gal(b1-4)GlcNAc(b1-3)Gal(b1-4)GlcNAc(b1-3)Gal(b1-4)GlcNAc(b1-3)Gal(b1-4)GlcNAc(b1-2)[GlcNAc(b1-3)Gal(b1-4)GlcNAc(b1-3)Gal(b1-4)GlcNAc(b1-3)Gal(b1-4)GlcNAc(b1-3)Gal(b1-4)GlcNAc(b1-6)]Man(a1-6)[GlcNAc(b1-3)Gal(b1-4)GlcNAc(b1-3)Gal(b1-4)GlcNAc(b1-3)Gal(b1-4)GlcNAc(b1-3)Gal(b1-4)GlcNAc(b1-2)Man(a1-3)]Man(b1-4)GlcNAc(b1-4)[Fuc(a1-6)]GlcNAc
Procedure, shortened: as §1

[5] = target: GlcNAc(b1-3)Gal(b1-4)GlcNAc(b1-3)Gal(b1-4)GlcNAc(b1-3)GalNAc
Procedure, shortened: as §1

[6] = target: GlcNAc(b1-3)Gal(b1-4)GlcNAc(b1-3)GalNAc
Procedure, shortened: as §1

[7] = target: GlcNAc(b1-3)Gal(b1-4)GlcNAc(b1-3)[GlcNAc(b1-3)Gal(b1-4)GlcNAc(b1-3)]GalNAc
Procedure, shortened: as §1

[8] = target: GlcNAc(b1-3)Gal(b1-4)GlcNAc(b1-6)[Gal(b1-3)]GalNAc
Procedure, shortened: as §1

[9] = target: GlcNAc(b1-3)Gal(b1-4)GlcNAc(b1-6)[GlcNAc(b1-3)Gal(b1-3)]GalNAc
Procedure, shortened: as §1

[10] = target: GlcNAc(b1-3)Gal(b1-4)GlcNAc(b1-6)[GlcNAc(b1-3)]Gal(b1-4)GlcNAc
Procedure, shortened: as §1

GlcNAc(b1-3)GalNAc = target: GlcNAc(b1-3)GalNAc
Procedure, shortened: as §1

GlcNAc(b1-3)Man = target: GlcNAc(b1-3)Man
Procedure, shortened: as §1

[11] = target: GlcNAc(b1-3)[GlcNAc(b1-4)][GlcNAc(b1-6)]GlcNAc
Procedure, shortened: as §1

[12] = target: GlcNAc(b1-3)[GlcNAc(b1-6)]Gal
Procedure, shortened: as §1

[13] = target: GlcNAc(b1-3)[GlcNAc(b1-6)]Gal(b1-4)GlcNAc
Procedure, shortened: as §1

[14] = target: GlcNAc(b1-3)[GlcNAc(b1-6)]Gal(b1-4)GlcNAc(b1-3)[GlcNAc(b1-6)]Gal(b1-4)GlcNAc(b1-3)Gal(b1-4)Glc
Procedure, shortened: as §1

[15] = target: GlcNAc(b1-3)[GlcNAc(b1-6)]GalNAc
Procedure, shortened: as §1

[16] = target: GlcNAc(b1-3)[GlcNAc(b1-6)]GlcNAc(b1-4)GlcNAc
Procedure, shortened: as §1

GlcNAc(b1-4)Fuc = target: GlcNAc(b1-4)Fuc
Procedure, shortened: as §1

[17] = target: GlcNAc(b1-4)Gal(b1-4)GlcNAc
Procedure, shortened: as §1

GlcNAc(b1-4)GlcNAc = target: GlcNAc(b1-4)GlcNAc
Procedure, shortened: as §1

[18] = target: GlcNAc(b1-4)GlcNAc(b1-4)GlcNAc
Procedure, shortened: as §1

[19] = target: GlcNAc(b1-4)GlcNAc(b1-4)GlcNAc(b1-4)GlcNAc
Procedure, shortened: as §1

B1: PNA (Arachis hypogaea), P02872 (protein)
chain: MKPFCVFLTFFLLLAASSKKVDSAETVSFNFNSFSEGNPAINFQGDVTVLSNGNIQLTNLNKVNSVGRVLYAMPVRIWSSATGNVASFLTSFSFEMKDIKDYDPADGIIFFIAPEDTQIPAGSIGGGTLGVSDTKGAGHFVGVEFDTYSNSEYNDPPTDHVGIDVNSVDSVKTVPWNSVSGAVVKVTVIYDSSTKTLSVAVTNDNGDITTIAQVVDLKAKLPERVKFGFSASGSLGGRQIHLIRSWSFTSTLITTTRRSIDNNEKKIMNMASA
Question: B1 was tested. Which “glycan array binding signal (z-score)” value [1] did it give?
Answer: The value was 1.79.

Question: What about the “glycan array binding signal (z-score)” value [2] of the same binder?
Answer: The value was 0.957.

Question: What about the “glycan array binding signal (z-score)” value [3] of the same binder?
Answer: Its value is 0.999.

Question: What about the “glycan array binding signal (z-score)” value [4] of the same binder?
Answer: The value was 1.96.

Question: What about the “glycan array binding signal (z-score)” value [5] of the same binder?
Answer: The value was -0.187.

Question: And the “glycan array binding signal (z-score)” value [6]?
Answer: Its value is -0.322.

Question: And the “glycan array binding signal (z-score)” value [7]?
Answer: The value was -0.006.

Question: What about the “glycan array binding signal (z-score)” value [8] of the same binder?
Answer: The value was 5.04.

Question: And the “glycan array binding signal (z-score)” value [9]?
Answer: The value was -0.239.

Question: What about the “glycan array binding signal (z-score)” value [10] of the same binder?
Answer: The value was 0.932.

Question: And the “glycan array binding signal (z-score)” value (GlcNAc(b1-3)GalNAc)?
Answer: Its value is -0.154.

Question: And the “glycan array binding signal (z-score)” value (GlcNAc(b1-3)Man)?
Answer: Its value is -0.153.

Question: What about the “glycan array binding signal (z-score)” value [11] of the same binder?
Answer: The value was -0.225.

Question: What about the “glycan array binding signal (z-score)” value [12] of the same binder?
Answer: Its value is -0.195.

Question: What about the “glycan array binding signal (z-score)” value [13] of the same binder?
Answer: Its value is 0.285.

Question: And the “glycan array binding signal (z-score)” value [14]?
Answer: The value was 2.02.

Question: And the “glycan array binding signal (z-score)” value [15]?
Answer: Its value is -0.173.

Question: What about the “glycan array binding signal (z-score)” value [16] of the same binder?
Answer: The value was -0.199.

Question: What about the “glycan array binding signal (z-score)” value (GlcNAc(b1-4)Fuc) of the same binder?
Answer: The value was -0.195.

Question: And the “glycan array binding signal (z-score)” value [17]?
Answer: Its value is -0.247.

Question: And the “glycan array binding signal (z-score)” value (GlcNAc(b1-4)GlcNAc)?
Answer: The value was -0.113.

Question: And the “glycan array binding signal (z-score)” value [18]?
Answer: Its value is -0.075.

Question: And the “glycan array binding signal (z-score)” value [19]?
Answer: The value was -0.195.

— the supplement of paper PMC8728848
